# From the supplement of paper PMC8728848
# Some of the results follow.
# B1: GS7807P-bth-537-23-537 (Bacteroides thetaiotaomicron) (protein)
# chain: NYENINSNPYEAPDLSADGYALGSAMNNLAGCVVSPDVNTAQFTDCLLGGPLGGYFADSNAGFTETISNFNPKDDWSRVFLKSDKIIPTLYSNLTQVKLVSQNTNDPVPYAIAQVIKVAAMHRVTDAFGPIPYSQIGANGEIATPYDSQEVTYNTFFDELNAAIATLNENSNEQLVPTADYIYKGDVKKWIRFANSLKLRLAIRIAYANPVKAQQMAEEAVNPANGGVIESNADNATWNYFETSQNPIYVATRYNQVQTSDHGGVPCLTGGDTHAAADIICYMNGYKDNRREKFFTKSEWAGQDYVGMRRGIVIPELKTTGHKYSGVNIAPTSPLYWMNAAEVAFLRAEGQAVFNFSMGGTAESFYNQGIRLSFEQWGADGVEDYLKDDVNKPTAYTDPAGTNTYQNALSNITIKWNDSADKEEKQERIIVQKWIANWQLGNEAWADFRRTGYPKLIPVKENKSGGVVDSEKGARRMPYPLDEFVSNKANVEYAIANYLHGADNMATDVWWASKK
# Experiments:
# Assay in all cases: glycan array binding signal (z-score within array); higher = stronger binding
# Conditions in all cases: glycan notation: IUPAC condensed, linker removed
# [1] = molecular target: Neu5Ac(a2-6)Gal(b1-4)GlcNAc(b1-3)Gal(b1-4)GlcNAc(b1-3)Gal(b1-4)GlcNAc(b1-2)Man(a1-3)[Neu5Ac(a2-6)Gal(b1-4)GlcNAc(b1-3)Gal(b1-4)GlcNAc(b1-3)Gal(b1-4)GlcNAc(b1-2)Man(a1-6)]GalNAc
# Outline: (§1)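 Columns mapping to the same glycan were averaged after glycan names were converted to IUPAC-condensed notation. The data come from 3228 arrays in the Consortium for Functional Glycomics database, limited to those with an available protein sequence. Binding is reported as a within-array Z-score averaged across arrays of one protein sequence and across linkers.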
# [2] = molecular target: Neu5Ac(a2-6)Gal(b1-4)GlcNAc(b1-3)Gal(b1-4)GlcNAc(b1-3)GalNAc
# Outline: as §1
# [3] = molecular target: Neu5Ac(a2-6)Gal(b1-4)GlcNAc(b1-3)Gal(b1-4)GlcNAc(b1-3)[Neu5Ac(a2-6)Gal(b1-4)GlcNAc(b1-3)Gal(b1-4)GlcNAc(b1-6)]GalNAc
# Outline: as §1
# [4] = molecular target: Neu5Ac(a2-6)Gal(b1-4)GlcNAc(b1-3)Gal(b1-4)GlcNAc(b1-6)[Gal(b1-3)]GalNAc
# Outline: as §1
# [5] = molecular target: Neu5Ac(a2-6)Gal(b1-4)GlcNAc(b1-3)Gal(b1-4)[Fuc(a1-3)]GlcNAc(b1-3)Gal(b1-4)[Fuc(a1-3)]GlcNAc
# Outline: as §1
# [6] = molecular target: Neu5Ac(a2-6)Gal(b1-4)GlcNAc(b1-3)GalNAc
# Outline: as §1
# [7] = molecular target: Neu5Ac(a2-6)Gal(b1-4)GlcNAc(b1-3)[Neu5Ac(a2-6)Gal(b1-4)GlcNAc(b1-6)]GalNAc
# Outline: as §1
# [8] = molecular target: Neu5Ac(a2-6)Gal(b1-4)GlcNAc(b1-6)GalNAc
# Outline: as §1
# [9] = molecular target: Neu5Ac(a2-6)Gal(b1-4)GlcNAc(b1-6)[Gal(b1-3)GlcNAc(b1-3)]Gal(b1-4)Glc
# Outline: as §1
# [10] = molecular target: Neu5Ac(a2-6)Gal(b1-4)GlcNAc(b1-6)[Gal(b1-3)]GalNAc
# Outline: as §1
# [11] = molecular target: Neu5Ac(a2-6)Gal(b1-4)GlcNAc6S
# Outline: as §1
# Neu5Ac(a2-6)GalNAc = molecular target: Neu5Ac(a2-6)GalNAc
# Outline: as §1
# [12] = molecular target: Neu5Ac(a2-6)GalNAc(b1-4)GlcNAc
# Outline: as §1
# [13] = molecular target: Neu5Ac(a2-6)GalNAc(b1-4)GlcNAc6S
# Outline: as §1
# [14] = molecular target: Neu5Ac(a2-6)GlcNAc(b1-4)GlcNAc
# Outline: as §1
# [15] = molecular target: Neu5Ac(a2-6)GlcNAc(b1-4)GlcNAc(b1-4)GlcNAc
# Outline: as §1
# Neu5Ac(a2-8)Neu5Ac = molecular target: Neu5Ac(a2-8)Neu5Ac
# Outline: as §1
# [16] = molecular target: Neu5Ac(a2-8)Neu5Ac(a2-3)Gal(b1-3)GalNAc(b1-4)[Neu5Ac(a2-3)]Gal(b1-4)Glc
# Outline: as §1
# [17] = molecular target: Neu5Ac(a2-8)Neu5Ac(a2-3)Gal(b1-3)GalNAc(b1-4)[Neu5Ac(a2-8)Neu5Ac(a2-3)]Gal(b1-4)Glc
# Outline: as §1
# [18] = molecular target: Neu5Ac(a2-8)Neu5Ac(a2-3)Gal(b1-4)Glc
# Outline: as §1
# [19] = molecular target: Neu5Ac(a2-8)Neu5Ac(a2-3)Gal(b1-4)GlcNAc
# Outline: as §1
# [20] = molecular target: Neu5Ac(a2-8)Neu5Ac(a2-3)[Gal(b1-3)GalNAc(b1-4)]Gal(b1-4)Glc
# Outline: as §1
# [21] = molecular target: Neu5Ac(a2-8)Neu5Ac(a2-3)[GalNAc(b1-4)]Gal(b1-4)Glc
# Outline: as §1
# [22] = molecular target: Neu5Ac(a2-8)Neu5Ac(a2-8)Neu5Ac
# Outline: as §1
# [23] = molecular target: Neu5Ac(a2-8)Neu5Ac(a2-8)Neu5Ac(a2-3)Gal(b1-4)Glc
# Outline: as §1
# [24] = molecular target: Neu5Ac(a2-8)Neu5Ac(a2-8)Neu5Ac(a2-3)[Gal(b1-3)GalNAc(b1-4)]Gal(b1-4)Glc
# Outline: as §1
# [25] = molecular target: Neu5Ac(a2-8)Neu5Ac(a2-8)Neu5Ac(a2-3)[GalNAc(b1-4)]Gal(b1-4)Glc
# Outline: as §1
# [26] = molecular target: Neu5Ac(a2-8)Neu5Ac(a2-8)Neu5Ac(a2-8)Neu5Ac(a2-3)[GalNAc(b1-4)]Gal(b1-4)Glc
# Outline: as §1
# [27] = molecular target: Neu5Ac(a2-8)Neu5Gc(a2-3)Gal(b1-4)GlcNAc
# Outline: as §1
# [28] = molecular target: Neu5Ac(b2-6)Gal(b1-4)GlcNAc
# Outline: as §1
# Neu5Ac(b2-6)GalNAc = molecular target: Neu5Ac(b2-6)GalNAc
# Outline: as §1
# [29] = molecular target: Neu5Ac9Ac(a2-3)Gal(b1-3)GlcNAc
# Outline: as §1
# [30] = molecular target: Neu5Ac9Ac(a2-3)Gal(b1-4)GlcNAc
# Outline: as §1
# [31] = molecular target: Neu5Ac9Ac(a2-6)Gal(b1-4)GlcNAc
# Outline: as §1
# [32] = molecular target: Neu5Gc(a2-3)Gal(b1-3)GlcNAc
# Outline: as §1
# [33] = molecular target: Neu5Gc(a2-3)Gal(b1-3)[Fuc(a1-4)]GlcNAc
# Outline: as §1
# Neu5Gc(a2-3)Gal(b1-4)Glc = molecular target: Neu5Gc(a2-3)Gal(b1-4)Glc
# Outline: as §1
# [34] = molecular target: Neu5Gc(a2-3)Gal(b1-4)GlcNAc
# Outline: as §1
# [35] = molecular target: Neu5Gc(a2-3)Gal(b1-4)GlcNAc(b1-3)Gal(b1-4)GlcNAc(b1-2)Man(a1-3)[Neu5Gc(a2-3)Gal(b1-4)GlcNAc(b1-3)Gal(b1-4)GlcNAc(b1-2)Man(a1-6)]Man(b1-4)GlcNAc(b1-4)GlcNAc
# Outline: as §1
# [36] = molecular target: Neu5Gc(a2-3)Gal(b1-4)[Fuc(a1-3)]GlcNAc
# Outline: as §1
# [37] = molecular target: Neu5Gc(a2-6)Gal(b1-4)GlcNAc
# Outline: as §1
# Neu5Gc(a2-6)GalNAc = molecular target: Neu5Gc(a2-6)GalNAc
# Outline: as §1
# [38] = molecular target: Neu5Gc(a2-8)Neu5Ac(a2-3)Gal(b1-4)GlcNAc
# Outline: as §1
# [39] = molecular target: Neu5Gc(a2-8)Neu5Gc(a2-3)Gal(b1-4)GlcNAc
# Outline: as §1
# [40] = molecular target: Neu5Gc(a2-8)Neu5Gc(a2-3)Gal(b1-4)GlcNAc(b1-3)Gal(b1-4)GlcNAc
# Outline: as §1
binder,measurement,setting,value
B1,glycan array binding signal (z-score),[1],-0.124
same,glycan array binding signal (z-score),[2],-0.372
same,glycan array binding signal (z-score),[3],-0.089
same,glycan array binding signal (z-score),[4],1.39
same,glycan array binding signal (z-score),[5],1.22
same,glycan array binding signal (z-score),[6],-0.099
same,glycan array binding signal (z-score),[7],0.841
same,glycan array binding signal (z-score),[8],0.024
same,glycan array binding signal (z-score),[9],0.485
same,glycan array binding signal (z-score),[10],0.929
same,glycan array binding signal (z-score),[11],-0.39
same,glycan array binding signal (z-score),Neu5Ac(a2-6)GalNAc,-0.393
same,glycan array binding signal (z-score),[12],-0.396
same,glycan array binding signal (z-score),[13],-0.331
same,glycan array binding signal (z-score),[14],-0.2
same,glycan array binding signal (z-score),[15],-0.389
same,glycan array binding signal (z-score),Neu5Ac(a2-8)Neu5Ac,-0.329
same,glycan array binding signal (z-score),[16],-0.358
same,glycan array binding signal (z-score),[17],0.021
same,glycan array binding signal (z-score),[18],-0.374
same,glycan array binding signal (z-score),[19],-0.38
same,glycan array binding signal (z-score),[20],-0.023
same,glycan array binding signal (z-score),[21],1.89
same,glycan array binding signal (z-score),[22],-0.358
same,glycan array binding signal (z-score),[23],-0.299
same,glycan array binding signal (z-score),[24],-0.382
same,glycan array binding signal (z-score),[25],0.411
same,glycan array binding signal (z-score),[26],-0.311
same,glycan array binding signal (z-score),[27],-0.362
same,glycan array binding signal (z-score),[28],0.513
same,glycan array binding signal (z-score),Neu5Ac(b2-6)GalNAc,-0.332
same,glycan array binding signal (z-score),[29],-0.266
same,glycan array binding signal (z-score),[30],-0.382
same,glycan array binding signal (z-score),[31],-0.397
same,glycan array binding signal (z-score),[32],-0.386
same,glycan array binding signal (z-score),[33],-0.379
same,glycan array binding signal (z-score),Neu5Gc(a2-3)Gal(b1-4)Glc,-0.321
same,glycan array binding signal (z-score),[34],-0.371
same,glycan array binding signal (z-score),[35],-0.361
same,glycan array binding signal (z-score),[36],-0.301
same,glycan array binding signal (z-score),[37],-0.396
same,glycan array binding signal (z-score),Neu5Gc(a2-6)GalNAc,-0.023
same,glycan array binding signal (z-score),[38],-0.376
same,glycan array binding signal (z-score),[39],-0.353
same,glycan array binding signal (z-score),[40],-0.358
